Source: the RNAGym collection of RNA variant scans (doi:10.7554/elife.90254)
Read counts are not given, so values of variants with three or more changes are uncertain.

B1: LINE1-mini (parent)
chain: GGCAGAGCUCAACACAGCGUGGCAAAGUGGCUGUGGCUAGACUGCC

Variants of: B1
Experiment: self-cleavage, relative activity (ratio to wild type); higher = more cleavage; in vitro, sequencing; the parent is a self-cleaving ribozyme
Work on G21A U28G C31A U43C yielded a self-cleavage of 0.1.
In the case of G21A U32C G36A C46U, the self-cleavage is reported as 0.05.
G21A U34C C46A gave a self-cleavage of 0.07.
G21A U34C C46U gave a self-cleavage of 0.12.
In the case of G21C A24G U38G, the self-cleavage is reported as 0.01.
G21C A25G C45A showed a self-cleavage of 0.21.
G21C A25U A39U C42A G44U showed a self-cleavage of 0.09.
Variant G21C A26C G29U has a self-cleavage of 0.13.
For G21C A39C C42U, the self-cleavage was 0.02.
With G21C C23U A24G C42A the self-cleavage was 0.16.
Variant G21C C31U G36A has a self-cleavage of 0.04.
With G21C C31U G40U the self-cleavage was 0.02.
For G21C C37G A39U, the self-cleavage was 0.03.
Work on G21C G22A C23U G36U A41G U43C yielded a self-cleavage of 0.05.
Variant G21C G22A G27A C42U has a self-cleavage of 0.28.
G21C G22A G30U showed a self-cleavage of 0.7.
In the case of G21C G22A G33U G40A C42G, the self-cleavage is reported as 0.04.
Work on G21C G22U G40A yielded a self-cleavage of 0.06.
G21C G27A C37U showed a self-cleavage of 0.06.
With G21C G27A G29C the self-cleavage was 0.59.
For G21C G27A G33U G44A, the self-cleavage was 0.08.
For G21C G27U G29U G36C, the self-cleavage was 0.05.
Variant G21C G29U C31A G33U has a self-cleavage of 0.01.
Work on G21C G29U C31G U32C G33U yielded a self-cleavage of 0.05.
Variant G21C G29U C37U has a self-cleavage of 0.03.
G21C G33U G40C showed a self-cleavage of 0.03.
G21C U28A A39C C45U showed a self-cleavage of 0.
With G21C U28A A41G the self-cleavage was 0.18.
G21C U28A G29C G33U gave a self-cleavage of 0.5.
Variant G21C U28A G35C has a self-cleavage of 0.12.
Variant G21C U34A U38A has a self-cleavage of 0.03.
In the case of G21C U34G C46U, the self-cleavage is reported as 0.21.
With G21C U38G C42A the self-cleavage was 0.02.
Variant G21C U38G G40A C42U has a self-cleavage of 0.01.
In the case of G21U A24C G29U, the self-cleavage is reported as 2.54.
G21U A24C G30U showed a self-cleavage of 1.84.
G21U A24C G33U gave a self-cleavage of 0.11.
Work on G21U A24G A39C yielded a self-cleavage of 0.18.
G21U A24G G27A U34C A41G gave a self-cleavage of 0.09.
Variant G21U A24G G30C G36U A39G has a self-cleavage of 0.02.
For G21U A24U A39G A41U, the self-cleavage was 0.02.
Work on G21U A25C G29U G35C yielded a self-cleavage of 0.12.
G21U A26C U28C C37A A41U gave a self-cleavage of 0.09.
Variant G21U A26G C42A has a self-cleavage of 0.38.
Variant G21U A26G G27C G30C C37U has a self-cleavage of 0.05.
G21U A26G G44A showed a self-cleavage of 0.32.
In the case of G21U A26U C37A A39C, the self-cleavage is reported as 0.03.
For G21U A26U G29U G30A, the self-cleavage was 0.9.
G21U A39C A41U gave a self-cleavage of 0.11.
Variant G21U C23A A25G A41G C46U has a self-cleavage of 0.26.
Variant G21U C23A G30C C37U G40A C45A has a self-cleavage of 0.04.
For G21U C23A U32C A39C, the self-cleavage was 0.05.
Work on G21U C23A U34A yielded a self-cleavage of 0.23.
With G21U C23G U43A the self-cleavage was 0.03.
G21U C23U C31U G35U showed a self-cleavage of 0.05.
Work on G21U C31G G36A U38G yielded a self-cleavage of 0.01.
For G21U C31G U43A, the self-cleavage was 0.04.
Work on G21U C31U C46A yielded a self-cleavage of 0.19.
Variant G21U C37A A41G G44A has a self-cleavage of 0.01.
For G21U C37A C45A, the self-cleavage was 0.33.
Work on G21U C37G C45U yielded a self-cleavage of 0.04.
G21U G22A G27A C42A showed a self-cleavage of 0.16.
In the case of G21U G22A G27U, the self-cleavage is reported as 0.31.
Variant G21U G22A U28C G35C A41U has a self-cleavage of 0.15.
With G21U G22C C31A the self-cleavage was 0.44.
Variant G21U G22C G33U C45G C46U has a self-cleavage of 0.02.
For G21U G22C U34C, the self-cleavage was 0.15.
In the case of G21U G22U C37G, the self-cleavage is reported as 0.35.
With G21U G22U C46G the self-cleavage was 0.44.
G21U G22U G33U C45U C46A gave a self-cleavage of 0.06.
G21U G27A A41G showed a self-cleavage of 0.28.
G21U G27A G30C C37A showed a self-cleavage of 0.03.
G21U G27C C45A showed a self-cleavage of 0.18.
G21U G27U G35U gave a self-cleavage of 0.17.
Work on G21U G29A G35A yielded a self-cleavage of 0.27.
With G21U G29A U43A the self-cleavage was 0.09.
G21U G29C C31A C42U C45G gave a self-cleavage of 0.03.
G21U G29U G40A C45U showed a self-cleavage of 0.15.
For G21U G30U G35U C45U, the self-cleavage was 0.07.
With G21U G30U U34G G40A the self-cleavage was 0.02.
With G21U G30U U38A the self-cleavage was 1.02.
In the case of G21U G30U U43C C46U, the self-cleavage is reported as 0.11.
Work on G21U G33A C45A yielded a self-cleavage of 0.02.
Variant G21U G33A U43A has a self-cleavage of 0.06.
